# Measured values taken from ChEMBL document CHEMBL4888484, “Replenishing the malaria drug discovery pipeline: Screening and hit evaluation of the MMV Hit Generation Library 1 (HGL1) against asexual blood stage Plasmodium falciparum ,using a nano luciferase reporter read-out” (2022).
# The whole screen tested about 150,000 compounds, of which about 540 (0.36%) showed an effect of 50% or more. The list shows a part of the results.
# Test system: Plasmodium falciparum
# Test: Primary screen in NF54 nanoGlo assay, in single point, at 2uM, 72h; a lower Z score goes with more inhibition
# Format: functional, Erythrocyte
# Conditions: timepoint 72 hour
SMILES,% Inhibition,Z score
OC1CCN(c2ccnc(NCc3ccc4[nH]c5c(c4c3)CCCC5)n2)CC1,-6%,0.82
CCN(CC)S(=O)(=O)N1CC(c2ccccn2)C1,1%,-0.12
CN(C)[C@H]1CCCCN(c2nc3ccccc3s2)C1,-4%,0.73
CCOCCCC(=O)NCc1cncc(F)c1,-4%,0.67
COc1ccc(CN2[C@@H]3CN(C(=O)c4c(F)cccc4F)C[C@@H]3OCCS2(=O)=O)cc1,-15%,2.38
Cc1c(Cl)c(C(=O)NCCc2ccccc2C(F)(F)F)nn1C,-17%,2.14
CCc1cc(NC(=O)[C@@H](NC(=O)N2CCCC2)C(C)CC)n(C)n1 (some centres not stated),-1%,0.25
CC(=O)N[C@H]1C[C@@H](c2cccc(O)c2)O[C@@H](c2ccc3c(c2)nnn3C)C1,-16%,1.86
CCn1c(C)nnc1CNC(C)C1CCCC(C)C1 (configuration not stated),5%,-0.98
Cc1nn(Cc2csc(-c3cccs3)n2)c(N)c1C#N,-6%,0.8
O[C@@H](Cc1nc(-c2ccccn2)no1)c1cccc(F)c1,-1%,0.07
CCOCCNC(=O)CN(C)c1cccc(O)c1,11%,-1.59
CN1[C@@H]2CC[C@H]1CN(C(=O)Nc1ccc(-c3cscn3)cc1)CC2,7%,-1
Cc1ccc(Cn2c(=O)c(C(=O)N3CCOCC3)nn(-c3cccc(Cl)c3)c2=O)cc1,3%,-0.45
CCO[C@H]1COC[C@@H]1Nc1ccnc(C(=O)NCc2ccccn2)c1,-1%,0.2
Cc1noc(-c2cccc(=O)n2CC(=O)NCc2ccccc2)n1,-6%,0.6
CN(CC1(c2ccc(Br)cc2)CC1)C(=O)[C@H]1CCn2cncc2C1,-7%,0.98
C[C@H](NC(=O)c1ccnn1C(F)F)C(C)(C)C,-10%,1.49
Cc1nc(-c2ccncc2)nc(N2CCO[C@H](C(F)F)C2)c1C,0%,-0.02
O=C1CC[C@@]2(CCCN(C(=O)c3ccccc3)C2)CN1CCc1c[nH]cn1,-6%,1.13
CC(C)c1cc(C(=O)N(CC#N)C(C)C)n(C)n1,-14%,1.69
CCCCN(CC(N)=O)c1cc(C)nc(CC)n1,2%,-0.16

SMILES,% Inhibition,Z score
COc1cc2c(-c3ccccc3)c(C)oc2cc1CN1CCC([C@]2(C)NC(=O)NC2=O)CC1,-10%,1.83
COc1ccc(CC(=O)Nc2ccc3nc4n(c(=O)c3c2)CCCC4)cc1,2%,-0.43
Cc1csc(NC(=O)[C@H](Cc2ccccc2)NC(=O)N2CCCC2)n1,-8%,1.02
CC(C)C[C@@H](Cc1ccn(C(C)C)n1)C(=O)O,-4%,0.52
CN(Cc1ccccc1)[C@H]1CCOC2(CCN(C(=O)CCC3CCCC3)CC2)C1,-7%,0.93
COc1ccccc1N1CCN(C(=O)C2CC=CCC2C(=O)O)CC1 (configuration not stated),1%,-0.11
Nc1ncc(C2(c3cccs3)CCCC2)s1,-6%,0.76
Cc1cc(CN(C)C(=O)Nc2cccc3cccnc23)no1,-7%,0.89
CN1CCCCC[C@H]1C(=O)N1CCC2(CCOCC2)CC1,-9%,0.9
CC(C)C[C@H]1NC(=O)[C@H]2CN(S(=O)(=O)c3ccc(Cl)cc3)CCN2C1=O,-7%,0.81
CN(C)c1noc(CN2CC[C@@]2(C)C2CCCCC2)n1,-14%,1.76
CC[C@@H](C(C)C)S(=O)(=O)NC(=O)c1cc(C#N)cn1C,-5%,0.56
Cc1nnc(-c2cccc(NC(=O)C3CCN(C(=O)Cn4cccn4)CC3)c2)s1,-17%,2.44
Cn1ccc(CCNC(=O)N2CC[C@H](C(=O)N3CCCC3)C2)n1,-12%,1.56
Cc1cc(NCc2ccnn2C)nc(C)n1,-12%,1.44
O=C1N[C@@](O)(c2ccccc2)c2cc3c(cc21)OCCO3,-12%,1.86
Cc1n[nH]cc1NC(=O)c1occc1-c1ccccc1,-1%,0.31
Cc1cc(S(=O)(=O)N[C@@H]2COCC[C@@H]2OCCN(C)C)c(C)s1,-1%,0.1
C[C@@]1(C(=O)NCc2ccccc2)Cn2nc(-c3ccccc3)cc2C(=O)N1C1CC1,9%,-1.39
Cn1nc(-c2ccc3c(c2)OCCO3)nc1N1CCCCC1,-6%,0.98
CNC(=O)COC(=O)Cc1ccc(Cl)cc1,30%,-3.43
Cc1c(CN2CCC(CCC(=O)Nc3ccccc3Cl)CC2)[nH]c2ccccc12,-5%,0.81

SMILES,% Inhibition,Z score
COCCn1ccnc1CN(C)Cc1nc(C)c[nH]1,-16%,1.55
Cc1n[nH]c(C)c1Cc1n[nH]c(=O)n1-c1cccc(Cl)c1,-12%,2.48
Cc1ccc2[nH]c(-c3nc(CCN(C)C(=O)c4ccc(F)cc4Cl)no3)c(C)c2c1,4%,-0.78
O=C(O)[C@H](NCc1cnc(C2CC2)s1)c1cccc(Cl)c1,-14%,2.56
Cc1ncoc1CNC(=O)N1Cc2cccnc2N2CCC[C@@H]2C1,-6%,1.23
N#Cc1ccc(C(=O)N[C@H]2CN[C@H](C(=O)NCCCc3ccccc3)C2)cc1,6%,-0.75
COc1ccc(OC)c(S(=O)(=O)NC2CCCC(OC(=O)Nc3ccccc3)C2)c1 (configuration not stated),-13%,2.49
O=C(CCc1nc([C@H]2CCOC2)no1)N1CCCCCC1,-23%,2.36
N#CC1(c2nc(CC(=O)NC3CCCC3)no2)CCCCC1,-13%,1.36
Cc1ccc(-c2noc(NC[C@](C)(O)C(=O)O)n2)cc1,-10%,1.38
Cc1cc(=O)c(C(=O)NC2(c3c(F)cccc3F)CCCC2)c[nH]1,13%,-1.71
Cc1nn(C)c(C(=O)NC[C@H]2COCCO2)c1Cl,6%,-0.79
COc1ccc(CN(Cc2cccnc2)C2CC2)cc1Cn1cncn1,8%,-1.3
Cn1ncc2c(N)nc(N3CC[C@H](Cc4ccc(F)c(F)c4)C3)nc21,10%,-1.32
CC[C@@H](CO)NC(=O)NCc1cc(Cl)cc2c1OCC2,-13%,1.78
CC(C)c1nc(CS(=O)(=O)Cc2noc(C3CC3)n2)no1,-13%,1.46
COc1cccc(OCCn2ncn(C)c2=O)c1,-11%,1.68
COc1ccc(S(=O)(=O)N2CC[C@H](c3nc4ccccc4n3C)C2)cc1,-14%,2.68
COc1ccccc1-c1cc(C(=O)Nc2sc3c(c2C#N)CC[C@H](C)C3)c2ccccc2n1,11%,-1.32
CC1(C)CN(CCCn2cnnn2)CC[C@]1(C)O,-5%,0.92
NC(=O)C1C2CCCC2CN1C(=O)c1ccncc1F (configuration not stated),-2%,0.34
CCn1cc(CN2CC(Oc3ccc(-c4noc(-c5cccnc5)n4)cc3)C2)cn1,-22%,4.13

SMILES,% Inhibition,Z score
COc1ncccc1C(=O)N1CC(n2nccn2)C1,1%,-0.16
S=c1sc2c(N3CCCC3)nc(-c3ccccc3)nc2n1-c1ccccc1,9%,-1.24
CCCCS(=O)(=O)NCCn1ccn2nccc12,-12%,1.58
CCc1ccccc1NC(=O)CN1CCN(C(=O)c2ccc(-n3cccn3)nc2)CC1,-8%,1.1
Cc1nc(N[C@@H](C)C(=O)N2CCCCC2)nc(C)c1CC(C)C,-7%,0.96
O=C(O)[C@]12CN(C/C=C/c3ccccc3)C[C@H]1CN(C1CCCC1)C2,1%,-0.11
O=C1[C@@H]2C[C@@H](CN2Cc2c(F)cccc2F)N1c1ccc2c(c1)OCO2,1%,-0.13
CC1(C)CCN(S(=O)(=O)N2C[C@@H]3NCCO[C@H]3C2)CC1,-10%,1
O=C(c1ccn(CC(F)F)n1)N1CCCCC2CCCCC21 (configuration not stated),-7%,0.86
CCCC(CCC)C(=O)Nc1cccc(C(=O)OCC)c1,-5%,0.51
CN(C)Cc1cccc(NC(=O)C[C@@H](c2ccc(Cl)c(Cl)c2)N2CCOCC2)c1,3%,-0.55
CCOc1c(Cl)cccc1CC(=O)N(C)Cc1nccs1,3%,-0.46
Cc1ccc(CCC(=O)NS(=O)(=O)c2cn(C)c3ccccc23)o1,2%,-0.27
COc1ccc(-c2ccno2)cc1S(=O)(=O)NCc1noc(C2CC2)n1,-16%,2.04
CC(C)OCc1c(C(=O)N2CCCCCC2)oc2ccccc12,-6%,1.01
CC(C)OCCC(=O)N1CCN(c2nncc3ccccc23)CC1,4%,-0.58
CCCCc1ccc(NC(=O)N(CCN(C)C)CCN(C)C)cc1,17%,-2.41
Cc1noc(C)c1S(=O)(=O)NCc1cc(-c2ccncc2)nn1C,-15%,1.74
Cc1ccc(-c2ncn(C3CCCCC3)c2-c2ccc(C(=O)Nc3ccc(F)cc3)o2)cc1,-2%,0.32
CCCC(=O)N1CCC(N2C(=O)N(Cc3cccnc3)C[C@]23CCOC3)CC1,-10%,1.15
